The values below come from ChEMBL document CHEMBL4373683, “Dual-target inhibitors of mycobacterial aminoacyl-tRNA synthetases among N-benzylidene-N'-thiazol-2-yl-hydrazines” (Medchemcomm, 2019).

The assay relates to Mycobacterium tuberculosis. Put plainly: Selectivity ratio of MIC for Mycobacterium tuberculosis H37Rv ATCC 27294 cultured in medium containing 7H9/DPPC/ cholesterol/BSA/Tyloxapol to MIC for Mycobacterium tuberculosis H37Rv ATCC 27294 cultured in medium containing 7H9/glucose/BSA/Tyloxapol incubated for 7 to 14 days by Alamar blue reagent based assay. Background: Resazurin is reduced to fluorescent resorufin, in cell work by metabolically active cells.

Some results are limits rather than exact numbers.

For `COc1ccc(/C=N/Nc2nc(-c3ccc(F)cc3)cs2)cc1Br`, the Selectivity ratio is >10.
